The other results are listed elsewhere or left out. Sequences were assembled here from the parent chain. Inactive controls read about 0.05.
B1: TEV protease; numbered along this chain (parent)
chain: MGESLFKGPRDYNPISSSICHLTNESDGHTTSLYGIGFGPFIITNKHLFRRNNGTLVVQSLHGVFKVKDTTTLQQHLVDGRDMIIIRMPKDFPPFPQKLKFREPQREERICLVTTNFQTKSMSSMVSDTSCTFPSGDGIFWKHWIQTKDGQCGSPLVSTRDGFIVGIHSASNFTNTNNYFTSVPKNFMELLTNQEAQQWVSGWRLNADSVLWGGHKVFMVKPEEPFQPVKEATQL

Variants of: B1
Assay: raw area under fraction-flipped curve 0-4 h after induction (AUC4h, not background-subtracted), DNA-recorder readout of cleavage of the substrate (dimensionless); higher = more cleavage of the substrate by the protease variant
Settings: temperature: 34 °C; time window: 0-4 h after rhamnose induction
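Note: Bxb1 expression induced with 0.2% (w/v) L-rhamnose at OD600 near 0.5, cultures sampled hourly, flipped fraction per protease–substrate barcode pair counted by paired-end Illumina sequencing.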

Variant	area with substrate ECLYFQS	area with substrate EDLYFQS	area with substrate EELYFQS	area with substrate EGLYFQS	area with substrate EILYFQS	area with substrate EKLYFQS	area with substrate EMLYFQS	area with substrate EQLYFQS	area with substrate ERLYFQS	area with substrate ESLYFQS	area with substrate EVLYFQS	area with substrate EWLYFQS	area with substrate EYLYFQS	area with substrate EHLYFQS	area with substrate EPLYFQS	area with substrate ETLYFQS	area with substrate EFLYFQS	area with substrate ELLYFQS
H215P	0.0478	0.0123	0.0795	0.0639	0.0543	0.0919	0.0617	0.0673	0.0522	0.0638	0.0561	0.0618	0.0506					
V217I	0.0887	0.124	0.121	0.0899	0.0893		0.122		0.112	0.107	0.104		0.161	0.0799	0.105			
V217K	0.0618	0.0738		0.0699	0.0644	0.0623				0.0631	0.0617		0.0779	0.0606		0.064		
V217S	0.0584				0.0466	0.053	0.0601	0.0652	0.0556	0.0483		0.0661	0.0586	0.0524	0.0893		0.0751	
V217Y	0.0592			0.0504	0.0622		0.0543		0.07	0.0607		0.0565			0.0567		0.0576	0.0615
M219N	0.0871		0.112		0.0661	0.122					0.0973					0.0814		0.0426
K221W	0.0776	0.0831			0.0832			0.0734	0.0661	0.0757	0.0812							0.0795
E223S	0.112	0.104	0.114	0.106	0.0559	0.0855	0.151	0.109	0.0859	0.0925		0.0861		0.101				0.121
E224G	0.0912	0.14		0.103	0.0975		0.133	0.135	0.108	0.086						0.107		0.0886
P225E	0.109	0.118	0.141		0.129	0.101		0.176						0.132		0.11	0.0744	0.124
P225G	0.126	0.0859	0.0924	0.0857	0.0916	0.105	0.11	0.141	0.122	0.102	0.0963	0.0862		0.104		0.145	0.118	0.0897
P225H	0.0806	0.123			0.095			0.14	0.0839	0.141	0.0875	0.0633	0.0765		0.0734	0.127		
P225M	0.0883	0.0948	0.0903	0.0999	0.0795		0.106	0.112	0.0991	0.0884	0.0909		0.171	0.0908	0.107			0.0869
P225N	0.117		0.104	0.104	0.11	0.106	0.0846	0.103	0.0951	0.118	0.0938	0.102		0.117				
P225Q	0.126	0.124				0.118	0.0987	0.132			0.084	0.0832	0.103				0.116	0.0907
Q227C	0.109	0.12			0.0829	0.115		0.115		0.0875	0.0868			0.0977	0.113			0.0805
P228G	0.0844		0.149	0.104	0.104	0.105	0.0983		0.102	0.099	0.1	0.106			0.108			0.105
V229S	0.0907		0.137		0.101		0.118	0.136	0.0828	0.1								0.124
V229T	0.0993		0.112		0.109				0.102	0.0871		0.078	0.109		0.116			0.087
K230H	0.112	0.0916		0.0937	0.12		0.119		0.113	0.0998	0.103			0.0668	0.095	0.136	0.105	0.0861
K230Q	0.115	0.0887	0.131	0.0942	0.0741		0.119	0.103	0.0948	0.0956	0.0974			0.112	0.148			0.0806
E231F	0.0855	0.121	0.0936		0.063		0.101			0.0904	0.0746	0.0889						0.0766
T233L	0.0915	0.125			0.0852		0.114		0.0963	0.0926	0.0748			0.0925	0.113	0.0846		0.0931
Q234Y	0.117	0.125	0.0886	0.0843	0.0838		0.0929	0.111	0.0791	0.106	0.0951				0.116	0.0958		0.0793
D79P		0.0995							0.121	0.0959	0.0965	0.1		0.0924				
G8Y					0.0809						0.0861							

— the supplement of paper PMC12217912
